PubChem BioAssay (Tox21)
The shares of active, inactive and inconclusive entries below differ from those in the screen. For some of these results: Potencies beside an inconclusive call are fits to weak or partial responses and may not hold up. Active and inactive are the calls of the source. Unless noted, the call rests on the fitted dose curve; in most records, active means well fitted curve in the direction sought with a large enough effect in the repeat runs; inconclusive means weak or mixed curves; inactive means no such curve, though single readings can be large; an effect the other way counts as inactive or inconclusive.

Legend:
[1] = qHTS assay for identifying genotoxic compounds that show differential cytotoxicity against isogenic chicken DT40 cell lines with known DNA damage response pathways - wild type cell line (AID 743012); conditions: DT40 wild type chicken cells viability, CellTiter-Glo, 40 h; activity change, negative = cytotoxicity: at 68.4 µM (top of the series) unless noted; further: nearly all actives have a fitted effect of over 60% in size; further: potency means the concentration at half of the fitted maximal effect; on activity change, negative = cytotoxicity: on the % scale 0 is the no-effect control and ±100 the full control effect
How it was run: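 CellTiter-Glo luminescence readout of viability in wild type DT40 cells after 40 h compound exposure at 37 C/5% CO2; 300 cells/well; reagent incubated 30 min at room temperature before reading.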

[2] = qHTS assay for identifying genotoxic compounds that show differential cytotoxicity against isogenic chicken DT40 cell lines with known DNA damage response pathways - Rev3 mutant cell line (AID 743014); conditions: chicken DT40 Rev3-/- viability, CellTiter-Glo, 40 h; activity, negative = cytotoxicity: at 68.4 µM (top of the series); further: potency means the concentration at half of the fitted maximal effect; nearly all actives have a fitted effect of over 55% in size
[3] = qHTS assay for identifying genotoxic compounds that show differential cytotoxicity against isogenic chicken DT40 cell lines with known DNA damage response pathways - Rad54/Ku70 mutant cell line (AID 743015); conditions: DT40 Rad54/Ku70 mutant viability, CellTiter-Glo, 40 h; activity change, negative = cytotoxicity: at 66.8 µM (top of the series); further: potency means the concentration at half of the fitted maximal effect; nearly all actives have a fitted effect of over 60% in size
[4] = qHTS assay to identify small molecule antagonists of the androgen receptor (AR) signaling pathway - cell viability counter screen (AID 743033; further: nearly all actives have a fitted effect of over 45% in size; further: potency means the concentration at half of the fitted maximal effect); conditions: AR-bla HEK293 viability, CellTiter-Glo luminescence, 16 h; activity change, negative = cytotoxicity: at 58.5 µM (top of the series) unless noted
[5] = qHTS assay to identify small molecule antagonists of the thyroid receptor (TR) signaling pathway (AID 743065); further: potency means the concentration at half of the fitted maximal effect; nearly all actives have a fitted effect of over 55% in size
How it was run: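 Antagonism measured as loss of luciferase signal in GH3 cells stably carrying a TRE-luciferase reporter, co-treated with compound and T3 (1 nM final) for 23.5 h at 37 C. Viability was read in the same well by CellTiter-Fluor.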

[6] = test system: thyroid hormone receptor (rat, GH3 cells); experiment: qHTS assay to identify small molecule agonists of the thyroid receptor (TR) signaling pathway (AID 743066; calls by dose curve; further: on the % scale 0 is the no-effect control and ±100 the full control effect); conditions: GH3.TRE-Luc cells, TR agonist luciferase, 24 h; activation: at 83.9 µM (top of the series) unless noted
[7] = qHTS assay to identify small molecule antagonists of the thyroid receptor (TR) signaling pathway - cell viability counter screen (AID 743064); conditions: GH3.TRE-Luc viability, CellTiter-Fluor, 24 h; activity change, negative = cytotoxic: at 70.3 µM (top of the series) unless noted; further: potency means the concentration at half of the fitted maximal effect; nearly all actives have a fitted effect of over 50% in size
How it was run: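 CellTiter-Fluor readout, 30 min at 37 °C/5% CO2, following 23.5 h incubation of GH3.TRE-Luc cells with test compound and 1 nM T3 (final).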

[8] = molecular target: Estrogen receptor (Homo sapiens) (UniProt P03372); experiment: qHTS assay to identify small molecule antagonists of the estrogen receptor alpha (ER-alpha) signaling pathway (AID 743069; active means well fitted curve in the direction sought with a large enough effect in the signal ratio in the repeat runs, not every such curve was filed as active; inconclusive means weak or mixed curves, or effect the other way; inactive means no such curve, though single readings can be large or run the other way; the % refers to the signal ratio; further: on the % scale 0 is the no-effect control and ±100 the full control effect); conditions: HEK293 ER-alpha-UAS-bla, beta-lactamase ratio, antagonist mode; activity, negative = inhibition: at 69.4 µM (top of the series) unless noted
Sequence of UniProt P03372 (P03372 whole entry, looked up): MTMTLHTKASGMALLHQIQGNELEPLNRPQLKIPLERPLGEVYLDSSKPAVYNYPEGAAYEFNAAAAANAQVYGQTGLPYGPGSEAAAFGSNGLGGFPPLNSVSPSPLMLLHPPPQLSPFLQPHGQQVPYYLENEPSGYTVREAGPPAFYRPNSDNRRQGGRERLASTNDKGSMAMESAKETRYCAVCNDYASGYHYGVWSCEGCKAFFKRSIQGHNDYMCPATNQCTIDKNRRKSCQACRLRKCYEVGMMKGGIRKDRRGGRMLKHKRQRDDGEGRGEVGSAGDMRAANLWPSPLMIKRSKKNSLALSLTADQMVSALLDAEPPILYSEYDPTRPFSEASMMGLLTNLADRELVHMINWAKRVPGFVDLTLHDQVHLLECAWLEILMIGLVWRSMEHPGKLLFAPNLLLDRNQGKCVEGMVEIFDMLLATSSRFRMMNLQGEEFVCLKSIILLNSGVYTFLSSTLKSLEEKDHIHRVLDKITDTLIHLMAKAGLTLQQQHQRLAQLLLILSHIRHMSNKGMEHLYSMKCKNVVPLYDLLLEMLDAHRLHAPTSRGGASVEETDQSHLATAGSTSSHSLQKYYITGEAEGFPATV
How it was run: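 Antagonist mode: compounds in DMSO were co-added with 17beta-estradiol to ER-alpha-bla HEK293 cells (2% charcoal-stripped serum) and left 18 h at 37C. Reporter inhibition was measured as FRET fluorescence after 2 h LiveBLAzer substrate at room temperature.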

[9] = molecular target: Estrogen receptor (Homo sapiens) (UniProt P03372); experiment: qHTS assay to identify small molecule agonists of the estrogen receptor alpha (ER-alpha) signaling pathway using the BG1 cell line (AID 743079); conditions: BG1Luc4E2 cells, ERE-luciferase agonist, 22 h; activation: at 70.3 µM (top of the series) unless noted; further: potency means the concentration at half of the fitted maximal effect; nearly all actives have a fitted effect of over 20% in size
[10] = qHTS assay to identify small molecule antagonists of the estrogen receptor alpha (ER-alpha) signaling pathway using the BG1 cell line (AID 743080; calls by dose curve;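 further: BG1 cells stimulated with 17beta-estradiol alongside compound; potency means the concentration at half of the fitted maximal effect; nearly all actives have a fitted effect of over 25% in size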); conditions: BG1Luc4E2 ERE-luciferase antagonist mode, luminescence; activity change, negative = inhibition: at 70.3 µM (top of the series) unless noted
How it was run: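 BG1-Luc-4E2 cells (endogenous full-length ER-alpha, stable 4×ERE-luciferase) were starved 5 days in phenol-red-free medium with 10% charcoal-stripped FBS, plated 24 h, then given compound plus 17beta-estradiol for 21.5 h at 37 C; ONE-Glo luminescence read after 30 min.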

[11] = molecular target: Androgen receptor (Homo sapiens) (UniProt P10275); experiment: qHTS assay to identify small molecule antagonists of the androgen receptor (AR) signaling pathway (AID 743035; active means well fitted inhibition curve with a large enough effect in the signal ratio in the repeat runs, not every such curve was filed as active; inconclusive means weak or mixed curves, or effect the other way; inactive means no such curve, though single readings can be large or run the other way; the % refers to the signal ratio; further: on the % scale 0 is the no-effect control and ±100 the full control effect); conditions: HEK293 AR-UAS-bla, R1881-stimulated, beta-lactamase FRET, 16 h; activity change, negative = inhibition: at 58.5 µM (top of the series) unless noted
Sequence of UniProt P10275 (P10275 whole entry, looked up): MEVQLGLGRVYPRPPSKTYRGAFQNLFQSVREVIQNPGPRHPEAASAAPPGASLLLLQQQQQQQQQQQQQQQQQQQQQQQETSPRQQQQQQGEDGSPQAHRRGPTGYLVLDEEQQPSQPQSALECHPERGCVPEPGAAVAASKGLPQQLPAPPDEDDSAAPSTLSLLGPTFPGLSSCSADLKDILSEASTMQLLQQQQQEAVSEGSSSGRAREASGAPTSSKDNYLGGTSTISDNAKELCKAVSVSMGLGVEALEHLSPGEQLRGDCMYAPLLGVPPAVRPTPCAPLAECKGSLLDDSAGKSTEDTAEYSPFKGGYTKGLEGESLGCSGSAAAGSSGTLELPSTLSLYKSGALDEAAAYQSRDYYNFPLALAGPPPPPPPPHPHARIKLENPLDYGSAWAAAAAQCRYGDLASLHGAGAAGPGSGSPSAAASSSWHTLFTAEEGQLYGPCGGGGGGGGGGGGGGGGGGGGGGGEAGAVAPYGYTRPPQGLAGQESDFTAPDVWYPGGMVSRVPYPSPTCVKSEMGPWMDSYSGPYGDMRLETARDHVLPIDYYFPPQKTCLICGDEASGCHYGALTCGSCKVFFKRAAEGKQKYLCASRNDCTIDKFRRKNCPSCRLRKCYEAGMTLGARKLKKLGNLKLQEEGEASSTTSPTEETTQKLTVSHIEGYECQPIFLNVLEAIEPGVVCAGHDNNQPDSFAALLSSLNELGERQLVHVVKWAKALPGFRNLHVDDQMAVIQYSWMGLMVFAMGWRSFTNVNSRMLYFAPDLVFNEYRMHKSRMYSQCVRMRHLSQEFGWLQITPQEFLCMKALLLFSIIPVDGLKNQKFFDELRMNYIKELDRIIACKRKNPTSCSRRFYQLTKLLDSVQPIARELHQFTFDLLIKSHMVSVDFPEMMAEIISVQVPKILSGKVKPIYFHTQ
How it was run: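 AR-bla HEK293 reporter cells; 4 h settle at 37C/5% CO2; compound + R1881 agonist, 16 h at 37C; LiveBLAzer B/G FRET substrate 2 h RT; fluorescence intensity read. qHTS format.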

[12] = qHTS assay to identify small molecule antagonists of the estrogen receptor alpha (ER-alpha) signaling pathway using the BG1 cell line - cell viability counter screen (AID 743081); conditions: BG1Luc4E2 viability, CellTiter-Fluor, 22 h; activity change, negative = cytotoxicity: at 70.3 µM (top of the series) unless noted;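 further: compound given together with 17beta-estradiol as the ER stimulus; potency means the concentration at half of the fitted maximal effect; nearly all actives have a fitted effect of over 45% in size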
Tags describe the fitted curve by direction and shape.

Oc1ccc(Cc2ccccc2)cc1
inconclusive: Potency [2] 44.9 µM [cytotoxic, partial curve] | Potency [3] 63.5 µM [cytotoxic, single point] | Potency [4] 50.9 µM [cytotoxic, partial curve, poor fit] | Potency [5] 71.2 µM [inhibitor, single point]
inactive: Potency [1] | Potency [6]

O=Cc1cc(O)ccc1Br
inconclusive: Potency [1] 12.4 µM [rising, full curve, poor fit] | Potency [2] 43.9 µM [cytotoxic, partial curve] | Potency [3] 69.6 µM [cytotoxic, single point] | Potency [7] 78.1 µM [cytotoxic, single point] | Potency [5] 69.6 µM [inhibitor, single point] | Potency [10] 17.5 µM [rising, partial curve, poor fit]
inactive: Potency [4] | Potency [8]
active: Potency [9] 31.1 µM

C=CC(=C)CCC=C(C)C
inconclusive: Potency [1] 68.6 µM [cytotoxic, single point] | Potency [2] 68.6 µM [cytotoxic, single point] | Potency [3] 68.6 µM [cytotoxic, single point] | Potency [7] 27.3 µM [rising, full curve]

COC(=O)[C@@H](N)Cc1ccc(O)c(O)c1
inconclusive: Potency [2] 33.5 µM [cytotoxic, single point] | activity change, negative = inhibition [11] 1.29% | Potency [12] 33.5 µM [cytotoxic]
active: Potency [1] 29.8 µM | Potency [3] 33.5 µM | Potency [7] 21.1 µM
